From PubChem BioAssay (NCATS)
Inconclusive means that the source gave no clear call. Such entries were picked first, then a sample of the others. No potency is given beside an inconclusive call; the fits are too rough. Calls of active or inactive are those of the source. Calls come from the whole dose curve; as a rule, active = well fitted curve in the direction sought with a large enough effect; inconclusive = small, poorly fitted or top-dose-only effect, or another doubt; inactive = no such curve, though single readings can be large; an effect the other way counts as inactive or inconclusive.

Assays:
[1] = target: Rap guanine nucleotide exchange factor 3 (Homo sapiens) (UniProt O95398); assay: Confirmatory qHTS for antagonist of cAMP-regulated guanine nucleotide exchange factor 3 (EPAC1) (AID 1645880); details: EPAC1 Rap1B-BODIPY-GDP exchange, fluorescence; activity, negative = inhibition: at 115 µM (top of the series); note: nearly all actives have a fitted effect of over 55% in size;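 for activity, negative = inhibition: plate controls were DMSO only for no effect and full effect of the ATA control for full effect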
Sequence of UniProt O95398 (O95398 whole entry, looked up): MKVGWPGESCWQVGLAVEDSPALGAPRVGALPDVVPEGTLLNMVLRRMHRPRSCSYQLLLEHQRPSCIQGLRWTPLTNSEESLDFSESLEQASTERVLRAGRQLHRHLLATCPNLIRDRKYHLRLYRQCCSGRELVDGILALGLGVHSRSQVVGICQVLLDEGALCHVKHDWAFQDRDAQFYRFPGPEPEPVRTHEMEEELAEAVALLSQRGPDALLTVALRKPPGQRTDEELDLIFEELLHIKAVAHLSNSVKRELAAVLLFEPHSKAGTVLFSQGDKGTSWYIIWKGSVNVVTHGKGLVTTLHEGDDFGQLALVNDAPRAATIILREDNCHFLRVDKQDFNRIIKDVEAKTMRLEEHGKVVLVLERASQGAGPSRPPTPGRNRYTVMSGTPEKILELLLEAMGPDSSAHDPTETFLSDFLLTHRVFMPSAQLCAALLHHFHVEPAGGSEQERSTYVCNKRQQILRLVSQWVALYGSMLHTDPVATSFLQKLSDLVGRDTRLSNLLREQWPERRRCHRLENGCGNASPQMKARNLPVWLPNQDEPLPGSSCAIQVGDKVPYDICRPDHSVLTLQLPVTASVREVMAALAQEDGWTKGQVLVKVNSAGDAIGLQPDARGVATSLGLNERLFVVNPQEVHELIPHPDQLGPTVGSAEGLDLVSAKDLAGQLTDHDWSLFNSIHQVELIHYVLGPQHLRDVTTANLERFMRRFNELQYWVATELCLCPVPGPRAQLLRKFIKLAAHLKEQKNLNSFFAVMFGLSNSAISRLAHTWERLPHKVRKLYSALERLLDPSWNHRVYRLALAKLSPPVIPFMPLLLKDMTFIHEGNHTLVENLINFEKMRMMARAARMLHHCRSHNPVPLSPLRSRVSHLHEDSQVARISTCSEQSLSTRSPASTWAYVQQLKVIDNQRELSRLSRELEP
In short: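 Nucleotide exchange uses 100 nM EPAC1, 250 nM RAP1B-BODIPY-GDP and 50 uM GDP, with compounds in a concentration-titration series. After 5 min at room temperature, fluorescence (480 nm ex/540 nm em) is read every 5 min for 30 min. Data are normalized to control ATA and DMSO.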

[2] = target: Rap guanine nucleotide exchange factor 3 (Homo sapiens) (UniProt O95398); assay: Counterscreen qHTS for agonist of cAMP-regulated guanine nucleotide exchange factor 3 (EPAC1) (AID 1645889); details: EPAC1 Rap1B-BODIPY-GDP exchange, fluorescence; activation: at 154 µM (top of the series) unless noted; note: nearly all actives have a fitted effect of over 40% in size; for activation: % of control where 0% means no effect
In short: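 Measured: fluorescence of BODIPY-GDP bound to Rap1B, which falls as exchange proceeds. Conditions include 50 uM competing GDP, 5 and 30 min reads, and a later cAMP challenge for antagonist detection.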
Potency is the fitted concentration of half-maximal effect; tags give direction and shape of the fitted curve.

Compound: Cc1ccc(C(NC(=O)C2CCN(Cc3ccc(Cl)c(Cl)c3)CC2)c2ccccn2)cc1 (stereo unspecified)
- Potency [1]: inconclusive [inhibitor, partial curve, poor fit]
- activation [2]: inconclusive: 35.6% [activator]

Compound: COc1ccc(/C=C/C(=O)c2ccc(Cl)cc2)c(OC)c1
- Potency [1]: inactive
- activation [2]: inconclusive: 52.4% [activator]

Compound: Cc1nn(-c2ccccc2)c(Cl)c1/C=C1\SC(=S)N(CCCCCC(=O)O)C1=O
- Potency [1]: inconclusive [inhibitor, partial curve, poor fit]
- activation [2]: inactive: 22.3% [at 30.8 µM]

Compound: COCCNc1nc2cc(-c3ccsc3)sc2c(=O)n1C
- Potency [1]: inconclusive [inhibitor, partial curve, poor fit]
- Potency [2]: inconclusive [activator, full curve, poor fit]

Compound: NNc1cccc(C=Cc2ccccc2)cc1=O
- Potency [1]: inconclusive [inhibitor, full curve]
- activation [2]: inactive: 27.5% [at 30.8 µM]

Compound: ON=C(c1ccccc1)c1ccc2c3c(cccc13)CC2
- Potency [1]: inconclusive [inhibitor, partial curve]
- Potency [2]: inconclusive [activator, partial curve, poor fit]

Compound: O=C(N/N=C/c1ccc(F)cc1)c1cc(-c2ccco2)nc2ccccc12
- Potency [1]: active: 16.9 µM
- Potency [2]: inconclusive [activator, partial curve, poor fit]

Compound: Cc1ccc(-n2c(CCC(=O)O)ccc2-c2cccs2)cc1Cl
- Potency [1]: inconclusive [inhibitor, partial curve, poor fit]
- Potency [2]: inconclusive [activator, partial curve, poor fit]

Compound: COc1ccc(CN(C(=O)c2cccs2)c2nccs2)cc1OC
- Potency [1]: inconclusive [inhibitor, partial curve, poor fit]
- Potency [2]: inconclusive [activator, full curve, poor fit]

Compound: CC(C)Cn1c(N)c(C(=O)NCC2CCCO2)c2nc3ccccc3nc21 (stereo unspecified)
- Potency [1]: active: 21.3 µM
- Potency [2]: inconclusive [activator, full curve, poor fit]

Compound: C/C(Cc1ccccc1)=N\NC(=O)c1cccnc1
- Potency [1]: inactive
- activation [2]: inactive: 15.7% [at 30.8 µM]

Compound: CSc1ccccc1NC(=O)CN(c1ccccc1)S(=O)(=O)N(C)C
- Potency [1]: inactive
- Potency [2]: inactive

Compound: CCc1cccc(C)c1Nc1c(-c2cccs2)nc2ncccn12
- Potency [1]: inactive
- Potency [2]: inconclusive [activator, partial curve, poor fit]
